Measurements as given in PubChem BioAssay (Tox21).
Values joined by “and” are separate entries in the source; they are usually repeats but may differ in a detail not shown here. Equal entries are not always repeated. Inconclusive results, whose numbers are uncertain, are shown with a selection of clear calls. For part of these data: Potencies beside an inconclusive call are fits to weak or partial responses and may not hold up. Active and inactive are the calls of the source. Unless noted, the call rests on the fitted dose curve.

Experiments:
[1] = biological target: Peroxisome proliferator-activated receptor gamma (Homo sapiens) (UniProt P37231); test: qHTS assay to identify small molecule agonists of the peroxisome proliferator-activated receptor gamma (PPARg) signaling pathway (AID 743094; active means well fitted activation curve with a large enough effect in the signal ratio in the repeat runs, not every such curve was filed as active; inconclusive means weak or mixed curves, or effect the other way; inactive means no such curve, though single readings can be large or run the other way; the % refers to the signal ratio; further: potency means the concentration at half of the fitted maximal effect; on activation: on the % scale 0 is the no-effect control and ±100 the full control effect); settings: HEK293H PPARg-UAS-bla, beta-lactamase FRET ratio, 17 h; activation: at 57 µM (top of the series) unless noted
Sequence of UniProt P37231 (P37231 whole entry, looked up): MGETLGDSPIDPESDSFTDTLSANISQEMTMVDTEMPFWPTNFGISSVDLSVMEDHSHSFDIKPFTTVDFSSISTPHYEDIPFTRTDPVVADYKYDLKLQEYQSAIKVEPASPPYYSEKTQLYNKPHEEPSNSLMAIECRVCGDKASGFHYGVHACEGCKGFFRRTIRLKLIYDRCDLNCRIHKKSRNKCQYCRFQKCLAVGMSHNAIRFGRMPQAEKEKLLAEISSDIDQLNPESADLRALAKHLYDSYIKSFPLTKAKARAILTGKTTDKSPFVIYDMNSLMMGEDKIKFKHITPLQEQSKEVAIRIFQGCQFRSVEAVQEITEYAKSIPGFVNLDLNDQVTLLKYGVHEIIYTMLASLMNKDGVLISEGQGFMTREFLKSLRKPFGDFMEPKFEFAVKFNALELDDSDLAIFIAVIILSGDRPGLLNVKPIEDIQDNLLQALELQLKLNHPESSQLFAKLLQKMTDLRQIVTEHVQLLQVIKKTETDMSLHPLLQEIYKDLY
Summary of the method: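 Beta-lactamase FRET fluorescence was the read-out after a 1 h room-temperature substrate step, following 17 h compound treatment at 37C of HEK293H cells expressing a UAS-driven bla reporter responsive to PPARg.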

[2] = biological target: Peroxisome proliferator-activated receptor gamma (Homo sapiens) (UniProt P37231); test: qHTS assay to identify small molecule antagonists of the peroxisome proliferator-activated receptor gamma (PPARg) signaling pathway (AID 743191); settings: HEK293H PPARg-UAS-bla, beta-lactamase ratio, antagonist, 17 h; ratio activity, negative = inhibition: at 62.6 µM (top of the series) unless noted; further: nearly all actives have a fitted effect of over 30% in size; further: potency means the concentration at half of the fitted maximal effect; on ratio activity, negative = inhibition: on the % scale 0 is the no-effect control and ±100 the full control effect
Summary of the method: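 Beta-lactamase reporter under UAS control in HEK293H PPARg-bla cells; compound treatment 17 h at 37C. Read-out: fluorescence intensity after 1 h room-temperature incubation with LiveBLAzer B/G FRET substrate.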

[3] = qHTS assay for small molecule agonists of the antioxidant response element (ARE) signaling pathway (AID 743202; active means well fitted activation curve with a large enough effect in the signal ratio in the repeat runs, not every such curve was filed as active; inconclusive means weak or mixed curves, or effect the other way; inactive means no such curve, though single readings can be large or run the other way; the % refers to the signal ratio; further: potency means the concentration at half of the fitted maximal effect; on activation: on the % scale 0 is the no-effect control and ±100 the full control effect); settings: HepG2 ARE-bla reporter, beta-lactamase FRET, 16 h; activation: at 73.3 µM (top of the series) unless noted
Summary of the method: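 An ARE-responsive beta-lactamase gene stably integrated in HepG2 cells serves as reporter. After 5 h plating and 16 h compound incubation at 37 C, fluorescence of the B/G FRET substrate was measured.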

[4] = qHTS assay to identify small molecule antagonists of the peroxisome proliferator-activated receptor delta (PPARd) signaling pathway - cell viability counter screen (AID 743213; active means well fitted curve in the direction sought with a large enough effect in the repeat runs; inconclusive means weak or mixed curves; inactive means no such curve, though single readings can be large; an effect the other way counts as inactive or inconclusive; further: potency means the concentration at half of the fitted maximal effect; nearly all actives have a fitted effect of over 50% in size); settings: PPARd-bla HEK293H viability, CellTiter-Glo luminescence, 17 h; viability change, negative = cytotoxic: at 62 µM (top of the series) unless noted
Summary of the method: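 Same-well viability: cells pre-incubated 5 h, dosed with compound plus 300 nM L165041, kept 17 h at 37 C, FRET substrate 2 h RT, then CellTiter-Glo 30 min RT and luminescence.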

[5] = qHTS assay to identify small molecule antagonists of the farnesoid-X-receptor (FXR) signaling pathway - cell viability counter screen (AID 743221; active means well fitted cell-killing curve with a large enough effect in the repeat runs, not every such curve was filed as active; inconclusive means weak or mixed curves, or effect the other way; inactive means no such curve, though single readings can be large or run the other way; further: nearly all actives have a fitted effect of over 50% in size; further: potency means the concentration at half of the fitted maximal effect); settings: FXR-bla HEK293T viability, CellTiter-Glo luminescence, 16 h; activity change, negative = cytotoxicity: at 62.6 µM (top of the series)
Summary of the method: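 HEK 293T FXR-bla cells, 5 h pre-incubation; compound + CDCA 50 uM final, 16 h, 37 C; beta-lactamase FRET read first, then CellTiter-Glo luminescence, 30 min RT.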

[6] = biological target: Vitamin D3 receptor (Homo sapiens) (UniProt P11473); test: qHTS assay to identify small molecule antagonists of the vitamin D receptor (VDR) signaling pathway (AID 743223; active means well fitted inhibition curve with a large enough effect in the signal ratio in the repeat runs, not every such curve was filed as active; inconclusive means weak or mixed curves, or effect the other way; inactive means no such curve, though single readings can be large or run the other way; the % refers to the signal ratio; further: potency means the concentration at half of the fitted maximal effect); settings: VDR-UAS-bla HEK293T, beta-lactamase FRET ratio, 16 h
Sequence of UniProt P11473 (P11473 whole entry, looked up): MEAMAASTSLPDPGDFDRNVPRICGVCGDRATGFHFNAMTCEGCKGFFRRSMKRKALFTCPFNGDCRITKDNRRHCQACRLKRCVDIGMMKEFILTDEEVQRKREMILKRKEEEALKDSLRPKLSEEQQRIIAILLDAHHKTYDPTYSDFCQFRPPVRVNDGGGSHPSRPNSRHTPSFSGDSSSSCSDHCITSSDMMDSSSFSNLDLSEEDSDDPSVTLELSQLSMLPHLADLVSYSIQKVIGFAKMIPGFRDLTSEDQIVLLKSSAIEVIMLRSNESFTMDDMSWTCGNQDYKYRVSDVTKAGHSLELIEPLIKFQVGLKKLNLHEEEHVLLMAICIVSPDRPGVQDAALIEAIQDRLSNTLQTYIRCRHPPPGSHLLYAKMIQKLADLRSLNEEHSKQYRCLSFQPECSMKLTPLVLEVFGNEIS
Summary of the method: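 Beta-lactamase reporter read-out: FRET substrate fluorescence after 2 h at room temperature, following 16 h exposure of VDR-bla cells to test compound plus 3 nM (final) 1alpha,25-dihydroxyvitamin D3 agonist at 37C.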

[7] = biological target: Bile acid receptor (Homo sapiens) (UniProt Q96RI1); test: qHTS assay to identify small molecule antagonists of the farnesoid-X-receptor (FXR) signaling pathway (AID 743217; active means well fitted inhibition curve with a large enough effect in the signal ratio in the repeat runs, not every such curve was filed as active; inconclusive means weak or mixed curves, or effect the other way; inactive means no such curve, though single readings can be large or run the other way; the % refers to the signal ratio; further: potency means the concentration at half of the fitted maximal effect); settings: HEK293T FXR-UAS-bla, beta-lactamase ratio, CDCA-stimulated, 16 h; activity change, negative = inhibition: at 62.6 µM (top of the series) unless noted
Sequence of UniProt Q96RI1 (Q96RI1 whole entry, looked up): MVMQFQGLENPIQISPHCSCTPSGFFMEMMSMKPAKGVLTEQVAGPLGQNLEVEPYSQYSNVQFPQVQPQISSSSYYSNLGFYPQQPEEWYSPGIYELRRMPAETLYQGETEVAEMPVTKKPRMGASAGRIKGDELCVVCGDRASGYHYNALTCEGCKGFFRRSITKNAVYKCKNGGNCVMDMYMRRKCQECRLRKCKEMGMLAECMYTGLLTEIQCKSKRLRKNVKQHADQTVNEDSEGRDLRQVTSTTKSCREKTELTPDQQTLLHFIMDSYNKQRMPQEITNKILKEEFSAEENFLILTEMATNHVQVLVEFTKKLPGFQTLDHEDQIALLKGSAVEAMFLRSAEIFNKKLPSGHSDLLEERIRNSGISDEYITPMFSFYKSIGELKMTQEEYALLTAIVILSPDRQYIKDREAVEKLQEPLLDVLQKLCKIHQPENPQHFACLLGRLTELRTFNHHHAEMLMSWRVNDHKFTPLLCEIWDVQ
Summary of the method: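 HEK 293T FXR-UAS-bla, 5000 cells/well; compound + CDCA 50 uM final; 16 h, 37 °C; B/G FRET substrate 2 h RT; fluorescence.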

[8] = qHTS assay for small molecule activators of the heat shock response signaling pathway (AID 743210; active means well fitted activation curve with a large enough effect in the signal ratio in the repeat runs, with a control signal flat, not every such curve was filed as active; inconclusive means weak or mixed curves; the % refers to the signal ratio; further: potency means the concentration at half of the fitted maximal effect); settings: HeLa HSE-bla reporter, beta-lactamase ratio, 5 h; activation: at 62.6 µM (top of the series)
Summary of the method: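 In HSE-bla HeLa cells, 5 h compound incubation (37 C) precedes addition of LiveBLAzer B/G substrate; after 2.5 h at room temperature, fluorescence intensity indicates reporter induction.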

[9] = qHTS assay to identify small molecule agonists of the farnesoid-X-receptor (FXR) signaling pathway - cell viability counter screen (AID 743218; active means well fitted curve in the direction sought with a large enough effect in the repeat runs; inconclusive means weak or mixed curves; inactive means no such curve, though single readings can be large; an effect the other way counts as inactive or inconclusive; further: nearly all actives have a fitted effect of over 45% in size; further: potency means the concentration at half of the fitted maximal effect); settings: FXR-bla HEK293T viability, CellTiter-Glo luminescence, 16 h; viability change, negative = cytotoxic: at 62.6 µM (top of the series) unless noted
Summary of the method: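 HEK 293T FXR-bla cells; 5 h pre-incubation, 16 h compound exposure at 37 C; LiveBLAzer substrate 2 h RT, then CellTiter-Glo 30 min RT, luminescence.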

[10] = biological target: Vitamin D3 receptor (Homo sapiens) (UniProt P11473); test: qHTS assay to identify small molecule agonists of the vitamin D receptor (VDR) signaling pathway (AID 743222); settings: HEK293T VDR-UAS-bla, beta-lactamase FRET ratio, 16 h; activation: at 63.5 µM (top of the series) unless noted; further: potency means the concentration at half of the fitted maximal effect
Summary of the method: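 VDR-bla cells, 2,000/well; 4 h preincubation 37C; cpd (DMSO) 16 h; LiveBLAzer B/G substrate 2 h RT; fluorescence intensity read.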

[11] = biological target: Peroxisome proliferator-activated receptor delta (Homo sapiens) (UniProt Q03181); test: qHTS assay to identify small molecule agonists of the peroxisome proliferator-activated receptor delta (PPARd) signaling pathway (AID 743212); settings: HEK293H PPARd-UAS-bla, beta-lactamase FRET ratio, 17 h; activation: at 62.6 µM (top of the series) unless noted; further: potency means the concentration at half of the fitted maximal effect
Sequence of UniProt Q03181 (Q03181 whole entry, looked up): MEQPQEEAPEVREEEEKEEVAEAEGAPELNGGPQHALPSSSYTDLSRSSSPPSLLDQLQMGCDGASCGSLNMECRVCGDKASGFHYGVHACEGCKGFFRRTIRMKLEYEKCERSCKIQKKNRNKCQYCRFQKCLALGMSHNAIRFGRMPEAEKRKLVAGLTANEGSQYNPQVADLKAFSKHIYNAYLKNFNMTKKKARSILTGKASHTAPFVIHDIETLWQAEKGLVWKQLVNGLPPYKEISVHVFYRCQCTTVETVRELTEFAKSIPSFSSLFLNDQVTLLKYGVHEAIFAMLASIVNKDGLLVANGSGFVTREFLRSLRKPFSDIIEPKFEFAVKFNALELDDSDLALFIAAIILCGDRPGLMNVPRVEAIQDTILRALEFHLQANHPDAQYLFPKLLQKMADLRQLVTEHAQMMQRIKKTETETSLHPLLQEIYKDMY
Summary of the method: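 HEK293H UAS-bla reporter cells, human PPARd system; compounds delivered in DMSO after 5 h plating, then at 37 C. Beta-lactamase FRET read, 2 h RT substrate step.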

[12] = biological target: Peroxisome proliferator-activated receptor delta (Homo sapiens) (UniProt Q03181); test: qHTS assay to identify small molecule antagonists of the peroxisome proliferator-activated receptor delta (PPARd) signaling pathway (AID 743215; active means well fitted inhibition curve with a large enough effect in the signal ratio in the repeat runs, not every such curve was filed as active; inconclusive means weak or mixed curves, or effect the other way; inactive means no such curve, though single readings can be large or run the other way; the % refers to the signal ratio;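 further: cells stimulated with agonist L165041 at 300 nM final during compound exposure; on the % scale 0 is the no-effect control and ±100 the full control effect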); settings: HEK293H PPARd-UAS-bla, beta-lactamase FRET ratio, antagonist, 17 h; ratio activity, negative = inhibition: at 62 µM (top of the series) unless noted
Summary of the method: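 Read-out is beta-lactamase FRET fluorescence, measured 2 h after substrate addition at room temperature. Beforehand, UAS-bla HEK293H cells carrying the PPARd reporter were exposed to compounds with L165041 at 300 nM final for 17 h at 37 C.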

[13] = qHTS assay to identify small molecule agonists of the peroxisome proliferator-activated receptor delta (PPARd) signaling pathway - cell viability counter screen (AID 743211; active means well fitted curve in the direction sought with a large enough effect in the repeat runs; inconclusive means weak or mixed curves; inactive means no such curve, though single readings can be large; an effect the other way counts as inactive or inconclusive; further: potency means the concentration at half of the fitted maximal effect; nearly all actives have a fitted effect of over 55% in size); settings: PPARd-bla HEK293H viability, CellTiter-Glo luminescence, 17 h; activity change, negative = cytotoxicity: at 62.6 µM (top of the series)
Summary of the method: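 Read-out: CellTiter-Glo luminescence, 30 min RT, measured in the same wells as the beta-lactamase reporter. Cells: GeneBLAzer PPAR delta UAS-bla HEK293H, 3000 cells/well, compound exposure 17 h at 37C.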

[14] = biological target: Bile acid receptor (Homo sapiens) (UniProt Q96RI1); test: qHTS assay to identify small molecule agonists of the farnesoid-X-receptor (FXR) signaling pathway (AID 743220; active means well fitted activation curve with a large enough effect in the signal ratio in the repeat runs, not every such curve was filed as active; inconclusive means weak or mixed curves, or effect the other way; the % refers to the signal ratio; further: potency means the concentration at half of the fitted maximal effect); settings: HEK293T FXR-UAS-bla, beta-lactamase FRET ratio, 16 h; activation: at 62.6 µM (top of the series) unless noted
Summary of the method: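 Beta-lactamase reporter under UAS control in GeneBLAzer FXR HEK 293T cells (5000/well) measured with LiveBLAzer FRET substrate after 2 h at room temperature. Compound exposure lasted 16 h at 37C.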

[15] = activity change, negative = inhibition: at 61 µM (top of the series) unless noted
Tags describe the fitted curve by direction and shape or compound fluorescence and quenching.

NC(CO)(CO)CO
inactive: Potency [5] | activity change, negative = inhibition ([6]; at 61 µM (top of the series)) 1.12% and 2.22% | activity change, negative = inhibition ([6]; at 78.8 µM (top of the series)) -14.9%
inconclusive: activation [1] 6.94% | ratio activity, negative = inhibition [2] 3.17% | activation [3] 15.3% [at 94.8 µM] | Potency [4] 0.0944 µM [cytotoxic, full curve, poor fit] | activity change, negative = inhibition [6, 15] 4.43%

CC1(C)[C@H](C(=O)O)N2C(=O)C[C@H]2S1(=O)=O
inconclusive: Potency [1] 1.9 µM [inhibitor, full curve] | Potency [2] 7.5 µM [rising, partial curve] | Potency [3] 0.266 µM [rising, full curve] | Potency [7] 3.35 µM [inhibitor] | Potency [6, 15] 19 µM [rising, partial curve]

O=C(CC(=O)C(F)(F)F)c1ccccc1
inactive: Potency [9] | Potency [10]
inconclusive: activation [1] -20.5% [at 78.9 µM] | Potency [2] 55.8 µM | Potency [8] 59.1 µM [activator]

OC[C@H]1O[C@@H](O[C@@H]2[C@@H](CO)O[C@](O)(CO)[C@H]2O)[C@H](O)[C@@H](O)[C@H]1O
inconclusive: activity change, negative = inhibition [6, 15] -4.57%
inactive: Potency [1] | Potency [2] | Potency [3]

CNCCCN1c2ccccc2CCc2ccccc21
active: Potency [4] 9.44 µM | Potency [9] 18.8 µM
inconclusive: activation [1] -16.8% [at 26.2 µM] | Potency [2] 26.6 µM [inhibitor, partial curve] | Potency [3] 10.6 µM [falling, partial curve, poor fit] | Potency [11] 26.6 µM [partial curve] | ratio activity, negative = inhibition [12] -37.5% | Potency [7] 33.5 µM [inhibitor, single point] | Potency [5] 33.5 µM [falling, single point] | activation [10] -24.7% | activity change, negative = inhibition [6, 15] -22.3%

Cc1ccc2oc(=O)ccc2c1
inactive: Potency [1] | Potency [11] | Potency [9]
inconclusive: ratio activity, negative = inhibition [2] -7.56% | Potency [13] 22.5 µM [cytotoxic, partial curve, poor fit] | Potency [4] 12.3 µM [cytotoxic, single point] | ratio activity, negative = inhibition [12] -12.3% | activity change, negative = inhibition [7] 16.5% [at 81.1 µM] | Potency [14] 34.7 µM [rising, partial curve, poor fit]

Cc1c(-c2cccnc2)c2ccccc2n1CCCCC(=O)O
inconclusive: activation [1] 5.85% | ratio activity, negative = inhibition [2] -36.1% | activation [3] -4.74% | Potency [11] 54.9 µM

O=C(O)c1cc(O)c2c(c1)C(=O)c1cccc(O)c1C2=O
active: Potency [3] 25.1 µM
inconclusive: Potency [1] 15.9 µM [fluorescent, partial curve] | Potency [2] 63.5 µM [fluorescent, partial curve, poor fit] | Potency [4] 0.0045 µM [cytotoxic, full curve, poor fit]

Clc1ccc2cc3ccccc3cc2c1
inactive: Potency [7]
inconclusive: Potency [1] 48.9 µM [activator, partial curve, poor fit] | ratio activity, negative = inhibition [2] -9.36% | activation [3] 0.112% | Potency [8] 58.1 µM [activator] | activation [11] -7.36% | Potency [9] 61.6 µM [rising, partial curve, poor fit] | activation [10] 0.533%

Cc1c(Cl)cccc1Nc1ccccc1C(=O)O
active: Potency [3] 26.6 µM
inactive: Potency [1] | Potency [8]
inconclusive: Potency [2] 4.73 µM [rising, partial curve] | activation [11] 20.3% | ratio activity, negative = inhibition [12] 0.445% | Potency [10] 29.8 µM [rising, partial curve] | Potency [6, 15] 23.9 µM [activator, partial curve]
